Data taken from paper PMC6310259.
These are yes or no findings as the source states them, for the method shown. For some of these results: In cells and extracts the contact can be indirect. Some binding calls cover weakened binding; strength is not graded here. Where a sequence is shown, tags or fusion partners need not be part of it. Each block holds one molecule with its values, some of them ahead of it.

Key:
[1] = biological target: T1, NPR2, yeast two-hybrid fusion (Arabidopsis thaliana) (UniProt Q9SZI3); assay: two-hybrid; NPR1 paralogs against each other (Fig 5); growth on -His, 5 mM or less 3AT when indicated; result told for plates with and without SA alike, or without naming the plate
T1 sequence: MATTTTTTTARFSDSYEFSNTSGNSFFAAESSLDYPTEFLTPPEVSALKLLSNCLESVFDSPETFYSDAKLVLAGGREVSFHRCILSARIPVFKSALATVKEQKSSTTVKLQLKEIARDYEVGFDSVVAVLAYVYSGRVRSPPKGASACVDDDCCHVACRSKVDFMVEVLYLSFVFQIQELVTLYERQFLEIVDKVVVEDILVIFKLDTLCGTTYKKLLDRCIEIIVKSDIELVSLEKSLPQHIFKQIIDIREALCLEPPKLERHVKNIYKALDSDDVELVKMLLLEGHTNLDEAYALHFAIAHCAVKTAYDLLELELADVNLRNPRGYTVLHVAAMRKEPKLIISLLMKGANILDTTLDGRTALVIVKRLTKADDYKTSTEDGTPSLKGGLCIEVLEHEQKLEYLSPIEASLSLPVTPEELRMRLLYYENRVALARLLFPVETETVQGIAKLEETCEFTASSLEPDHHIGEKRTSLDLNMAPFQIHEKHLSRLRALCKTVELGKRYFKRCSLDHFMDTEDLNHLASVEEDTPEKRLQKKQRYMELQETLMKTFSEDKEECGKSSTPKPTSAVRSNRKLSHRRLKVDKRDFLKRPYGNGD

[2] = biological target: T2, BOP1, BiFC fusion (Arabidopsis thaliana) (UniProt Q9M1I7); assay: split reporter; BiFC in N. benthamiana leaves, agroinfiltrated; 1 mM SA one day before visualization; first protein fused with the N-terminal part of GFP, second with the C-terminal; confocal microscopy
T2 sequence: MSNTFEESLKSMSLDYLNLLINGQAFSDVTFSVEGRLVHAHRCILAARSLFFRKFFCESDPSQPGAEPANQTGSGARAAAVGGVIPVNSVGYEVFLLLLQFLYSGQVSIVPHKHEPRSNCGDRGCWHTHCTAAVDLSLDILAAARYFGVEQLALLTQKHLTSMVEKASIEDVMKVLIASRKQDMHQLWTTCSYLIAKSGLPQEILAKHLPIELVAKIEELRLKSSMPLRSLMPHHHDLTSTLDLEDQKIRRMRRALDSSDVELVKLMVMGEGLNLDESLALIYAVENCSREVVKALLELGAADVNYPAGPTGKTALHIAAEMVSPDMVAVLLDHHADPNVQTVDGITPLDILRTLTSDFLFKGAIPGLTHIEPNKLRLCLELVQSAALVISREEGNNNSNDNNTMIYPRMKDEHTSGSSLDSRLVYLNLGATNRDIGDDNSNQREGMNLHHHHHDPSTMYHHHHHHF

[3] = biological target: T3, BOP2, BiFC fusion (Arabidopsis thaliana) (UniProt Q9ZVC2); assay: as above
T3 sequence: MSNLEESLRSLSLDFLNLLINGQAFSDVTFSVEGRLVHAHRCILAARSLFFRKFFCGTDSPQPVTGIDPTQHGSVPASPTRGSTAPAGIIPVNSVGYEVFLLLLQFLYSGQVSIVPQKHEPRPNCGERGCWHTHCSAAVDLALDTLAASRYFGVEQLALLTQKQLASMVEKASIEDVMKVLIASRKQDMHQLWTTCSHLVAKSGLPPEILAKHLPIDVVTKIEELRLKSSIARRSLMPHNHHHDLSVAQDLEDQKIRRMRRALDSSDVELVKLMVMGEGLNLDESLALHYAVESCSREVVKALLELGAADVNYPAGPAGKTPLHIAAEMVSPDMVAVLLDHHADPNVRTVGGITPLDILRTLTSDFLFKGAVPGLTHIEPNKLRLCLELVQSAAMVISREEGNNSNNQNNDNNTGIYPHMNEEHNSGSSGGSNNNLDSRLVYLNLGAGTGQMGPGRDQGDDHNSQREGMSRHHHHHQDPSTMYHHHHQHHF

[4] = biological target: T4, NPR2, BiFC fusion (Arabidopsis thaliana) (UniProt Q9SZI3); assay: as above
T4 sequence: T1 sequence

[5] = biological target: T5, NPR4, yeast two-hybrid fusion (Arabidopsis thaliana) (UniProt Q5ICL9); assay: two-hybrid; NPR1 paralogs against each other (Fig 5); growth on -His, 5 mM or less 3AT when indicated; result told for plates with and without SA alike, or without naming the plate
T5 sequence: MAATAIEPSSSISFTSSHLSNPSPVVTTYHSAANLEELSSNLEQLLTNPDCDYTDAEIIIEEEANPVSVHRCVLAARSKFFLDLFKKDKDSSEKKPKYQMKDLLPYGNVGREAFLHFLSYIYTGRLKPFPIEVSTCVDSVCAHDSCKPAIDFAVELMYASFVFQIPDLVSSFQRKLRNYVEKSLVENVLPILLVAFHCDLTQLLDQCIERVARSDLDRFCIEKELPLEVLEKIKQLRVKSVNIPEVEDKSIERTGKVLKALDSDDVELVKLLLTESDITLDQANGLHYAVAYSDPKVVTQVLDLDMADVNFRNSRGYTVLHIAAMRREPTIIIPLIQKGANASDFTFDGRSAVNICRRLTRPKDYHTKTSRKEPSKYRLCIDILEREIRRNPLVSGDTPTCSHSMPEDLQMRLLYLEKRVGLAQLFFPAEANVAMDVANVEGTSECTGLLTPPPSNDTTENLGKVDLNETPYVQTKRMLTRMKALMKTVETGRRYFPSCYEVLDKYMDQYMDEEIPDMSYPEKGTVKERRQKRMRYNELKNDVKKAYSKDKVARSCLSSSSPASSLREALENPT

[6] = biological target: T5, NPR4, yeast two-hybrid fusion (Arabidopsis thaliana); assay: two-hybrid; NPR1 paralogs against each other (Fig 5); growth on -His in the presence of 100 μM SA
[7] = biological target: T6, NON EXPRESSER OF PATHOGENESIS RELATED 1 (NPR1), yeast two-hybrid fusion (Arabidopsis thaliana), P93002; assay: two-hybrid; NPR1 paralogs against each other (Fig 5); growth on -His in the absence of SA, 0 to 5 mM 3AT; details: remark: other sources report otherwise
T6 chain: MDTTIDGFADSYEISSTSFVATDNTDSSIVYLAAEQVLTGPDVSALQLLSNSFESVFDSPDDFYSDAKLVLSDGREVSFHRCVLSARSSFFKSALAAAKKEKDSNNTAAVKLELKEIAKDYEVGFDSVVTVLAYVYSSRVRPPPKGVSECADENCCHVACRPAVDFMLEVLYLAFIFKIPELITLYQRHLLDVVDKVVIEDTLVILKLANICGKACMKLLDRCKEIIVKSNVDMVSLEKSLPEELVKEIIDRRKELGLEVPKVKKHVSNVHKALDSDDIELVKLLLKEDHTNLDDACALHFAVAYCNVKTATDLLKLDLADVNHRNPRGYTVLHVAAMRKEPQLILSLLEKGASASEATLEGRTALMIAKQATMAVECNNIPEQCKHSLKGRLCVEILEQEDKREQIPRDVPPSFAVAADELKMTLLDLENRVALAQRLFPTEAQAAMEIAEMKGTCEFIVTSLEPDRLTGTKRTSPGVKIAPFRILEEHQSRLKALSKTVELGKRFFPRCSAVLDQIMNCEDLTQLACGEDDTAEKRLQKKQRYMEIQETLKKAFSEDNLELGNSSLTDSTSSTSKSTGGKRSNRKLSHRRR

Molecule: NON EXPRESSER OF PATHOGENESIS RELATED 1 (NPR1), yeast two-hybrid fusion (from UniProt P93002 1-593)
- binding [1]: binds

Molecule: NPR1, BiFC fusion (from UniProt P93002 1-593)
- binding [2]: binds
- binding [3]: binds
- binding [4]: binds

B1: BOP2, yeast two-hybrid fusion (protein, UniProt Q9ZVC2 1-491)
chain: T3 sequence
- binding [1]: binds
- binding [5]: binds

B2: NPR3, yeast two-hybrid fusion (protein, UniProt Q8L746 1-586)
chain: MATLTEPSSSLSFTSSHFSYGSIGSNHFSSSSASNPEVVSLTKLSSNLEQLLSNSDCDYSDAEIIVDGVPVGVHRCILAARSKFFQDLFKKEKKISKTEKPKYQLREMLPYGAVAHEAFLYFLSYIYTGRLKPFPLEVSTCVDPVCSHDCCRPAIDFVVQLMYASSVLQVPELVSSFQRRLCNFVEKTLVENVLPILMVAFNCKLTQLLDQCIERVARSDLYRFCIEKEVPPEVAEKIKQLRLISPQDEETSPKISEKLLERIGKILKALDSDDVELVKLLLTESDITLDQANGLHYSVVYSDPKVVAEILALDMGDVNYRNSRGYTVLHFAAMRREPSIIISLIDKGANASEFTSDGRSAVNILRRLTNPKDYHTKTAKGRESSKARLCIDILEREIRKNPMVLDTPMCSISMPEDLQMRLLYLEKRVGLAQLFFPTEAKVAMDIGNVEGTSEFTGLSPPSSGLTGNLSQVDLNETPHMQTQRLLTRMVALMKTVETGRRFFPYGSEVLDKYMAEYIDDDILDDFHFEKGSTHERRLKRMRYRELKDDVQKAYSKDKESKIARSCLSASSSPSSSSIRDDLHNTT
- binding [6]: binds

Results, then the molecule that gave them:

- binding [1]: binds
- binding [5]: binds
B3: BLADE ON PETIOLE 1 (BOP1), yeast two-hybrid fusion (protein, UniProt Q9M1I7 1-467)
chain: T2 sequence

- binding [7]: binds
B4: NON EXPRESSER OF PATHOGENESIS RELATED 1 (NPR1), yeast two-hybrid fusion, P93002 1-593 (protein)
chain: T6 chain
